Assay results published in the supplement of paper PMC6609913.
Counter-ions that a name gives are not always drawn. ± gives the standard deviation of the averaged measurements. Over roughly 1,300 compounds, “normalised cell viability” has its median near 1; the lowest 2% begin near 0.14. The list shows a part of the results.

System: V-C8 (BRCA2-deficient hamster cells)
Experiment: normalised cell viability (fraction of plate median); higher = more viable cells (less toxic)
Conditions: 5 µM
In short: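 Hamster V-C8 cells with and without restored BRCA2 were exposed in 96-well plates to library drugs at 5 μM for 3 days (screen 1) or 6 days (screen 2). Cell viability was scored by resazurin assay, then median-plate normalised, averaging triplicate wells.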

O=C1OC(CN2CCOCC2)CN1/N=C/c1ccc([N+](=O)[O-])o1 (configuration not stated) [Furaltadone hydrochloride]
normalised cell viability (treatment time: 3 days): 0.93 ± 0.023
normalised cell viability (treatment time: 6 days): 0.917 ± 0.11

O=C(O)CCNC(=O)c1ccc(/N=N/c2ccc(O)c(C(=O)O)c2)cc1 [Balsalazide Sodium]
normalised cell viability (treatment time: 3 days): 0.973 ± 0.027
normalised cell viability (treatment time: 6 days): 0.953 ± 0.13

CCC(C)n1ncn(-c2ccc(N3CCN(c4ccc(OCC5COC(Cn6cncn6)(c6ccc(Cl)cc6Cl)O5)cc4)CC3)cc2)c1=O (configuration not stated) [Itraconazole]
normalised cell viability (treatment time: 3 days): 0.822 ± 0.07
normalised cell viability (treatment time: 6 days): 0.871 ± 0.041

Cc1cccc(Nc2ccccc2C(=O)O)c1C [Mefenamic acid]
normalised cell viability (treatment time: 3 days): 1.14 ± 0.058
normalised cell viability (treatment time: 6 days): 0.959 ± 0.059

C[n+]1ccccc1/C=N/O [Pralidoxime chloride]
normalised cell viability (treatment time: 3 days): 1.03 ± 0.029
normalised cell viability (treatment time: 6 days): 1.02 ± 0.06

O=C(O)CN(CCN(CC(=O)O)CC(=O)O)CCN(CC(=O)O)CC(=O)O [Pentetic acid]
normalised cell viability (treatment time: 3 days): 0.996 ± 0.04
normalised cell viability (treatment time: 6 days): 1.075 ± 0.0064

C#CCN(C)CCCOc1ccc(Cl)cc1Cl [Clorgyline hydrochloride]
normalised cell viability (treatment time: 3 days): 1.11 ± 0.063
normalised cell viability (treatment time: 6 days): 1.019 ± 0.0054

CC(C)NCC(O)c1cc(O)cc(O)c1 (configuration not stated) [Metaproterenol sulfate, orciprenaline sulfate]
normalised cell viability (treatment time: 3 days): 1.17 ± 0.22
normalised cell viability (treatment time: 6 days): 1.06 ± 0.011

Cn1c(=O)c2c(ncn2CCO)n(C)c1=O [Etofylline]
normalised cell viability (treatment time: 3 days): 1.03 ± 0.052
normalised cell viability (treatment time: 6 days): 0.996 ± 0.039

COc1ccccc1N1CCN(CCCNc2cc(=O)n(C)c(=O)n2C)CC1 [Urapidil hydrochloride]
normalised cell viability (treatment time: 3 days): 1.033 ± 0.0072
normalised cell viability (treatment time: 6 days): 1.01 ± 0.019

CCN(CC)Cc1cc(Nc2ccnc3cc(Cl)ccc23)ccc1O [Amodiaquin dihydrochloride dihydrate]
normalised cell viability (treatment time: 3 days): 0.877 ± 0.021
normalised cell viability (treatment time: 6 days): 0.934 ± 0.057

CCC(=O)OCC(=O)[C@@]1(OC(=O)CC)[C@@H](C)C[C@H]2[C@@H]3CCC4=CC(=O)C=C[C@]4(C)[C@@]3(Cl)[C@@H](O)C[C@@]21C [Beclomethasone dipropionate]
normalised cell viability (treatment time: 3 days): 0.991 ± 0.032
normalised cell viability (treatment time: 6 days): 0.93 ± 0.013

C=CCSCC1Nc2cc(Cl)c(S(N)(=O)=O)cc2S(=O)(=O)N1 (configuration not stated) [Althiazide]
normalised cell viability (treatment time: 3 days): 0.95 ± 0.059
normalised cell viability (treatment time: 6 days): 1.03 ± 0.073

CN(C)CC/C=C1/c2ccccc2COc2ccc(CC(=O)O)cc21 [Olopatadine hydrochloride]
normalised cell viability (treatment time: 3 days): 1.004 ± 0.0095
normalised cell viability (treatment time: 6 days): 1.04 ± 0.016

c1ccc(CN(CC2=NCCN2)c2ccccc2)cc1 [Antazoline hydrochloride]
normalised cell viability (treatment time: 3 days): 0.99955 ± 0.0007
normalised cell viability (treatment time: 6 days): 1.05 ± 0.074

CC(=O)N(CC(O)CN(C(C)=O)c1c(I)c(C(=O)NCC(O)CO)c(I)c(C(=O)NCC(O)CO)c1I)c1c(I)c(C(=O)NCC(O)CO)c(I)c(C(=O)NCC(O)CO)c1I (configuration not stated) [Iodixanol]
normalised cell viability (treatment time: 3 days): 0.989 ± 0.1
normalised cell viability (treatment time: 6 days): 1.02 ± 0.037

CC(C(=O)O)c1ccc(C(=O)c2ccccc2)s1 (configuration not stated) [Tiaprofenic acid]
normalised cell viability (treatment time: 3 days): 0.163 ± 0.0088
normalised cell viability (treatment time: 6 days): 0.153 ± 0.0061

N=C(N)NCCN1CCCCCCC1 [Guanethidine sulfate]
normalised cell viability (treatment time: 3 days): 0.956 ± 0.096
normalised cell viability (treatment time: 6 days): 0.928 ± 0.088

C#C[C@]1(O)CC[C@H]2[C@@H]3CCC4=CC(=O)CC[C@@H]4[C@H]3CC[C@@]21CC [Norgestrel-(-)-D]
normalised cell viability (treatment time: 3 days): 1.016 ± 0.004
normalised cell viability (treatment time: 6 days): 0.997 ± 0.015

CC(CN(C)C)CN1c2ccccc2Sc2ccccc21 (configuration not stated) [Trimeprazine tartrate]
normalised cell viability (treatment time: 3 days): 0.978 ± 0.038
normalised cell viability (treatment time: 6 days): 0.964 ± 0.03

CC1(C)[C@@H](OC(=O)CCC(=O)O)CC[C@]2(C)[C@H]3C(=O)C=C4[C@@H]5C[C@@](C)(C(=O)O)CC[C@]5(C)CC[C@@]4(C)[C@]3(C)CC[C@@H]12 [Carbenoxolone disodium salt]
normalised cell viability (treatment time: 3 days): 1 ± 0.041
normalised cell viability (treatment time: 6 days): 1.15 ± 0.26

C=CCOC(Cn1ccnc1)c1ccc(Cl)cc1Cl (configuration not stated) [Enilconazole]
normalised cell viability (treatment time: 3 days): 0.93 ± 0.04
normalised cell viability (treatment time: 6 days): 0.943 ± 0.015

CC(CN(C)C)C(C)(O)Cc1ccc(Cl)cc1 (configuration not stated) [Clobutinol hydrochloride]
normalised cell viability (treatment time: 3 days): 1.05 ± 0.13
normalised cell viability (treatment time: 6 days): 1.11 ± 0.064

C[C@]1(Cn2ccnn2)[C@H](C(=O)O)N2C(=O)C[C@H]2S1(=O)=O [Tazobactam]
normalised cell viability (treatment time: 3 days): 1.03 ± 0.038
normalised cell viability (treatment time: 6 days): 1.04 ± 0.036

CC[C@@H](CO)NCCN[C@@H](CC)CO [Ethambutol dihydrochloride]
normalised cell viability (treatment time: 3 days): 1.04 ± 0.046
normalised cell viability (treatment time: 6 days): 1.09 ± 0.12

CC(=O)OCC(=O)[C@@]1(OC(C)=O)[C@@H](C)C[C@H]2[C@@H]3C[C@H](F)C4=CC(=O)C=C[C@]4(C)[C@@]3(F)[C@@H](O)C[C@@]21C [Diflorasone Diacetate]
normalised cell viability (treatment time: 3 days): 1.18 ± 0.074
normalised cell viability (treatment time: 6 days): 1.02 ± 0.051

CCCOc1ccc(C(=O)OCCN(CC)CC)cc1N [Proparacaine hydrochloride]
normalised cell viability (treatment time: 3 days): 0.951 ± 0.039
normalised cell viability (treatment time: 6 days): 1.01 ± 0.058

COC(=O)Nc1nc2cc([S+]([O-])c3ccccc3)ccc2[nH]1 (configuration not stated) [Oxfendazol]
normalised cell viability (treatment time: 3 days): 0.712 ± 0.076
normalised cell viability (treatment time: 6 days): 0.775 ± 0.014

NC1CCN(c2nc3c(cc2F)c(=O)c(C(=O)O)cn3-c2ccc(F)cc2F)C1 (configuration not stated) [Tosufloxacin hydrochloride]
normalised cell viability (treatment time: 3 days): 1.01 ± 0.048
normalised cell viability (treatment time: 6 days): 1.08 ± 0.024

COc1ccccc1OCC(O)COC(N)=O (configuration not stated) [Methocarbamol]
normalised cell viability (treatment time: 3 days): 1.03 ± 0.038
normalised cell viability (treatment time: 6 days): 1.01 ± 0.018

Cc1cc(N)c2ccccc2[n+]1CCCCCCCCCC[n+]1c(C)cc(N)c2ccccc21 [Dequalinium dichloride]
normalised cell viability (treatment time: 3 days): 0.171 ± 0.0032
normalised cell viability (treatment time: 6 days): 0.162 ± 0.013

Nc1ccn([C@@H]2CS[C@H](CO)O2)c(=O)n1 [Lamivudine]
normalised cell viability (treatment time: 3 days): 0.147 ± 0.0082
normalised cell viability (treatment time: 6 days): 0.139 ± 0.012

CO/N=C(\C(=O)N[C@@H]1C(=O)N2C(C(=O)OC(C)OC(C)=O)=C(COC(N)=O)CS[C@H]12)c1ccco1 (some centres not stated) [Cefuroxime axetil]
normalised cell viability (treatment time: 3 days): 1.04 ± 0.04
normalised cell viability (treatment time: 6 days): 1.02 ± 0.11

O=C(c1ccccc1)c1ccc2n1CCC2C(=O)O (configuration not stated) [Ketorolac tromethamine]
normalised cell viability (treatment time: 3 days): 1.01 ± 0.03
normalised cell viability (treatment time: 6 days): 1 ± 0.051

CCOC(=O)[C@@](C)(N)Cc1ccc(O)c(O)c1 [Methyldopate hydrochloride]
normalised cell viability (treatment time: 3 days): 0.895 ± 0.09
normalised cell viability (treatment time: 6 days): 0.938 ± 0.063

COc1c(N2CCNC(C)C2)c(F)cc2c(=O)c(C(=O)O)cn(C3CC3)c12 (configuration not stated) [Gatifloxacin]
normalised cell viability (treatment time: 3 days): 1.01 ± 0.046
normalised cell viability (treatment time: 6 days): 1.02 ± 0.036

CC(C)(O)c1ccccc1CC[C@@H](SCC1(CC(=O)O)CC1)c1cccc(/C=C/c2ccc3ccc(Cl)cc3n2)c1 [Montelukast]
normalised cell viability (treatment time: 3 days): 1.09 ± 0.11
normalised cell viability (treatment time: 6 days): 1.1 ± 0.052

CN1Cc2c(N)cccc2C(c2ccccc2)C1 (configuration not stated) [Nomifensine maleate]
normalised cell viability (treatment time: 3 days): 1.058 ± 0.01
normalised cell viability (treatment time: 6 days): 0.961 ± 0.044

c1ccc(CNc2ncnc3nc[nH]c23)cc1 [Aminopurine, 6-benzyl]
normalised cell viability (treatment time: 3 days): 0.947 ± 0.1
normalised cell viability (treatment time: 6 days): 0.94 ± 0.075

Nc1ccn([C@@H]2O[C@H](CO)[C@@H](O)[C@@H]2O)c(=O)n1 [Cytarabine]
normalised cell viability (treatment time: 3 days): 0.206 ± 0.0091
normalised cell viability (treatment time: 6 days): 0.196 ± 0.022

COc1ccnc(C[S+]([O-])c2nc3cc(OC(F)F)ccc3[nH]2)c1OC (configuration not stated) [Pantoprazole sodium]
normalised cell viability (treatment time: 3 days): 1.17 ± 0.35
normalised cell viability (treatment time: 6 days): 1.09 ± 0.086
